# Measured values as given in article PMC6919601, “Identification of Plasmodium dipeptidyl aminopeptidase allosteric inhibitors by high throughput screening” (PLoS ONE, 2019).
# Screen size: about 110,000 compounds; about 230 (0.21%) showed an effect of 50% or more. The list shows a part of the results.
# Target: DPAP1 (Plasmodium falciparum, UniProt Q8IIJ9)
# Experiment: primary screen, percent inhibition; read by cleavage of a fluorogenic dipeptide substrate; higher = more effect of the substance
# Parameters: species or system P. falciparum D10 trophozoite lysates; single well
# 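Also: 30 min substrate incubation versus DMSO and 10 µM JCP410 controls.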
# DPAP1, sequence (Q8IIJ9 whole entry, looked up): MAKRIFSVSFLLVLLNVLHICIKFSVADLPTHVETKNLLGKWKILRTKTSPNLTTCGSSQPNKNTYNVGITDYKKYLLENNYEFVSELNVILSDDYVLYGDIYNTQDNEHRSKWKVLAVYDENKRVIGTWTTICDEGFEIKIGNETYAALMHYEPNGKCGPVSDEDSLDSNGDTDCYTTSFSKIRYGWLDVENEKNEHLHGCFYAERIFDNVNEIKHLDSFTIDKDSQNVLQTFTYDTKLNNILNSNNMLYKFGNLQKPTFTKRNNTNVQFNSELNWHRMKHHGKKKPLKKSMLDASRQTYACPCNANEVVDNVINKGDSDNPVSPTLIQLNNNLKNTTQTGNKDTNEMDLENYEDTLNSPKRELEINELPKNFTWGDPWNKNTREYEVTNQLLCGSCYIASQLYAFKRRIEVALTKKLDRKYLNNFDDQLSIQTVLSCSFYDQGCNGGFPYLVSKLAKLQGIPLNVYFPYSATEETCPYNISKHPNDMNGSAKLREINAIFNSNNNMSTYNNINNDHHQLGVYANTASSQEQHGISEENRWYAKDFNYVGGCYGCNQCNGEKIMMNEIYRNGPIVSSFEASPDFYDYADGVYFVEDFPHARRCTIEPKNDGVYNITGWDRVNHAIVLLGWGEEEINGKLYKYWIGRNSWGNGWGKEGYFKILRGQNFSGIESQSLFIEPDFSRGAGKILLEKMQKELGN
row,SMILES,% Inhibition @ 10 uM
1,Cc1ccc(CNC(=O)C2CCN(S(=O)(=O)c3c(C)noc3/C=C/N(C)C)CC2)cc1,-8.42%
2,O=C(Cn1ncc2c3ccccc3n(Cc3ccccc3)c2c1=O)NCCC1=CCCCC1,3.4%
3,Cc1nn(-c2ccccc2)c2c1C1(C)CC(C)(O2)c2c(C)nn(-c3ccccc3)c2O1,3.35%
4,Cc1c(C(=O)Nc2ccc(Cl)cn2)sc2nc3n(c(=O)c12)CCCCC3,0.658%
5,CC(C)(C)c1nnc(NC(=O)c2ccccc2O)s1,16.9%
6,COc1cccc(C2CC(c3ccc(C)c(C)c3)Nc3ncnn32)c1OC (centres unmarked),-1.48%
7,COc1ccc(-c2nc(CS(=O)(=O)CC(=O)NC3CCC(C)CC3)c(C)o2)cc1 (centres unmarked),-5.58%
8,Cc1nn(C)c(C(=O)N2CCN(C(=O)c3ccco3)CC2)c1Br,-4.82%
9,COc1ccc(CNC(=O)CN2C(=O)C3CCCN3c3ncc(Cl)cc32)cc1 (centres unmarked),-2.85%
10,COc1ccc(NC(=O)c2cc(S(=O)(=O)N3CCS(=O)(=O)CC3)ccc2Cl)cc1,-5.57%
11,O=C(NCc1ccc2c(c1)OCO2)c1cc2c(Cl)ccc3c2n1CCO3,2.15%
12,S=C(NNc1ccccc1)NC12CC3CC(CC(C3)C1)C2,2.94%
13,COCCCN1C(=O)S/C(=C/c2cc(C)n(-c3ccc(OC)cc3)c2C)C1=O,0.709%
14,COc1ccc(OC)c(CCNC(=O)CN2C(=O)CSc3ncccc32)c1,1.03%
15,Cc1cccc(C2NCCc3c2[nH]c2ccccc32)c1 (centres unmarked),-0.446%
16,CCOc1ccc(CCNC(=O)CCN2N=C(c3ccccc3)CCC2=O)cc1OCC,-4.53%
17,Cc1ccc(CN(CC(=O)N2CCCCCC2)S(=O)(=O)c2ccc(C)cc2)cc1,-5.27%
18,C=CCOc1ccc(/C=c2\sc3ncnn3c2=O)cc1,0.487%
19,CCC(C)NC(=O)c1ccccc1NS(=O)(=O)c1ccc(NC(C)=O)cc1 (centres unmarked),-0.872%
20,CCCCN(CCCC)C(=O)CCNS(=O)(=O)c1cc(Br)cnc1N,1.96%
21,COc1ccc(CCCC(=O)Nc2ccccc2F)cc1,-2.94%
22,CCOc1ccc(C2CC(c3cccc(OC)c3OC)n3nnnc3N2)cc1Cl (centres unmarked),-3.37%
23,COc1ccc(C2C(C(=O)C(C)(C)C)=C(O)C(=O)N2c2ccc(C)cc2)cc1 (centres unmarked),-5.26%
24,O=C(C1=C(O)C(=O)N(c2ccccc2)C1c1ccc(F)cc1)c1ccccc1 (centres unmarked),-0.28%
25,O=C(CSc1ccccc1C(=O)O)NC1CCCCC1,-1.11%
26,Cc1ccc(S(=O)(=O)c2cnc3cc4c(cc3c2O)OCO4)cc1,-7.13%
